# Experimental data published in PMC10668032.
# The list shows a part of the results. At the low end of the ranking the order means little.
# Molecular target: SIX1 homeodomain (reference allele) (UniProt Q15475)
# Test: universal protein binding microarray
# Conditions: Universal all-10-mer PBM (8x60K, AMADID 030236), 300 nM GST-tagged protein, Alexa Fluor 488 anti-GST; buffer, salt, pH and temperature not stated; high values mean tight binding; most listed sequences are background and not binding sites; double strand, one strand shown
row,Sequence,binding signal [E-score]
1,GCAGAGCC,-0.191
2,CTCCTTCC,-0.0616
3,ATAACCCG,0.126
4,GTGCTCCA,-0.105
5,CTGAGGAC,-0.154
6,GAAGAGGC,-0.112
7,AAATTGCT,-0.31
8,ATACTAAC,0.243
9,AAACACGT,-0.186
10,GCATCAAA,-0.118
11,TGATCTAA,0.14
12,CTTCCAGA,-0.0823
13,AACCCACG,-0.0638
14,AACGAGAA,-0.135
15,AGACGGTA,0.196
16,GCCAGACC,-0.231
17,AGGAGTCC,-0.191
18,TGAACACA,-0.141
19,CAATTGAA,-0.141
20,CCATCTCC,0.124
21,AGGATATC,0.466
22,AACACATT,-0.0749
23,GCGCATAA,-0.151
24,CGCCTCCA,-0.128
25,GAACACCA,0.0855

row,Sequence,binding signal [E-score]
1,GCTGGCCA,-0.237
2,ATACAACA,0.144
3,ATGTAGAC,-0.016
4,CAGGGCAG,-0.0772
5,AGAGGTAT,0.399
6,CGCTCCAA,0.011
7,ACGAACCT,-0.14
8,GCCCCCCC,-0.126
9,CATCCAGG,-0.0372
10,ACTGAGCG,-0.0401
11,AAGAGGTC,-0.0965
12,AAGCTGGA,0.0264
13,AACTGGAA,-0.178
14,ATCCGAAA,0.246
15,ACCCAGAT,0.338
16,AGTTGTAG,-0.134
17,ACCGCAGC,-0.109
18,TCCTAGGA,0.096
19,AGCAGAAT,-0.0899
20,ACGTCTGA,0.0308
21,ATGATGGA,0.0804
22,TCTATGCA,0.074
23,GAGGGCGA,-0.159
24,ATAAGTGC,-0.107
25,CTGCCTGC,-0.114

row,Sequence,binding signal [E-score]
1,CTGGATGA,0.0682
2,AGGGCTTC,-0.215
3,ACAATCCG,0.216
4,GAGGGTGA,-0.149
5,AGAAATAC,0.0635
6,AGAATGAA,-0.173
7,GCTCGTAA,-0.0299
8,TCATGTAA,-0.0418
9,CTAAAAAG,-0.273
10,CATGTGGG,-0.0538
11,GACTATAC,0.237
12,CCCATGGC,-0.0434
13,CAATCCAA,-0.0072
14,GAGCTAGA,0.00693
15,ACACAACG,-0.0741
16,ACTCTTCT,-0.00282
17,ATACGCAC,0.254
18,GACTAAAA,-0.125
19,GACGCCTA,-0.161
20,ATGGGCGG,0.0993
21,CCGTCTAG,0.119
22,CACTCCAC,-0.162
23,CGTCATAA,-0.0846
24,GACACCCA,0.396
25,CTGCGTAC,-0.213

row,Sequence,binding signal [E-score]
1,CGGCGTCA,-0.0319
2,CTTAGGGA,-0.0384
3,AAGTCACT,-0.337
4,CCGTACAA,-0.0215
5,TGATCGAA,0.00534
6,TACAACAA,-0.0918
7,AACTTGCG,-0.215
8,CCTTCAGC,-0.284
9,AGGGCTCA,0.12
10,GGGGTTTA,0.148
11,AGATCGAC,0.139
12,GGGTTTCA,0.179
13,CACGAATG,0.00522
14,AGAAAACT,-0.235
15,GCCCAGGC,-0.204
16,CGGGCCCG,-0.295
17,CGATAAGC,0.0138
18,TAATAGGA,0.133
19,AAGCTATA,0.0434
20,GCACGAGC,0.0515
21,GCTACGAA,-0.148
22,ATTCAACG,-0.117
23,GAAGGGCA,-0.228
24,ATAGCTCG,0.135
25,ACTGTCAA,-0.233

row,Sequence,binding signal [E-score]
1,CAATAGCG,-0.0879
2,ACGGGTTC,0.0992
3,AGCAGGAA,-0.258
4,AAACTGGA,0.0258
5,AAGCGCAC,-0.188
6,AAAAAGCA,-0.297
7,GATGGCCC,-0.101
8,ATCAATTC,0.203
9,AGAGAGCA,-0.146
10,AAGAAGCT,-0.214
11,AGAGTGGC,-0.267
12,AAAGATTT,-0.207
13,CACGCCAA,-0.108
14,GCCCTTCC,-0.271
15,ATTGGCAA,0.0408
16,GCGATGCC,-0.0705
17,AGCCCTAA,-0.14
18,ACCCCTAA,-0.0467
19,ACACTACG,-0.0301
20,ACTAGAGT,-0.123
21,GGAACTAC,-0.291
22,AGAATAGA,-0.0228
23,CCTTCACA,-0.0651
24,GAAGGTAC,-0.105
25,CGGTGGGA,-0.00609

row,Sequence,binding signal [E-score]
1,CTTAGCAC,-0.141
2,CCAGGCAA,-0.18
3,AGTTAGGG,-0.0206
4,ACGTTATA,0.141
5,ATAACAGA,0.0319
6,ACTCAAGA,0.00144
7,CTATTGGC,-0.134
8,ATTACGCA,-0.0292
9,GCTTGGCA,-0.218
10,AAGTGATC,0.391
11,GATAAAGA,0.13
12,AAGGCGAG,-0.116
13,AGTTAACC,-0.18
14,CCTATCTA,0.178
15,CACTGTCA,-0.138
16,AACTTCGG,-0.236
17,CCTTATAC,0.161
18,AGTTCGCG,-0.0399
19,ATGTCCGA,0.0442
20,AAAAATAT,0.0842
21,AATGCCGT,0.0168
22,AATCGCTC,-0.169
23,CGGTCCAA,-0.126
24,ACGAGGCA,-0.0999
25,ATCTAGTC,0.0339

row,Sequence,binding signal [E-score]
1,AGGACCTA,0.0652
2,CCCCCCGG,0.0234
3,GTCATCAC,-0.146
4,AATCGGAT,0.253
5,AATCGCAG,-0.0685
6,CATGCCAC,-0.0399
7,CCCTAAGG,-0.0545
8,CGTCTTTA,0.0316
9,CACCGCTC,0.0873
10,CGAGATAG,0.085
11,ACCACCGT,-0.0519
12,ACACTGTG,-0.00611
13,GATATTAC,0.319
14,CATGGTGA,0.225
15,CTCGTAAC,-0.0545
16,TACTCGGA,0.162
17,AGTTGGGG,0.102
18,AAGACTCC,-0.324
19,AAGCTCAG,-0.207
20,AATGCGAG,-0.0242
21,TCAGGGCA,-0.0105
22,AAGCAGCG,-0.0895
23,AGCAAGAT,0.0758
24,AATTCGCC,-0.156
25,ATCCGACA,0.35

row,Sequence,binding signal [E-score]
1,AAATTTTA,-0.127
2,ACTCGCGA,0.0221
3,AGGTATTA,0.385
4,CGCGCGAC,-0.0865
5,AAAGAGAT,0.0667
6,CGTGAGTC,-0.176
7,ATCATGGG,0.17
8,TACCCCAA,0.174
9,CCCCGGAG,0.128
10,CTTGATGA,0.0224
11,AGAGTATC,0.465
12,ATCCTAGG,0.238
13,ATCTCGTG,0.209
14,ATCCAGCC,0.182
15,AACCCCCT,0.107
16,AGCATCAC,-0.0036
17,ACCCGCAG,0.0626
18,GAACCACC,-0.0411
19,AATGGAAT,-0.125
20,TCTCGGAA,-0.00352
21,GACCCGGC,0.183
22,GTAAGCTA,0.129
23,CTCATATA,0.253
24,GATCAGGC,0.289
25,AATGCGGC,-0.193

row,Sequence,binding signal [E-score]
1,AGCGGAAA,-0.326
2,CGACTGTC,-0.178
3,AAGCCGAA,0.0384
4,AGTGCCAA,-0.244
5,CCCCGAAC,-0.0242
6,GTCTCCAA,0.0309
7,CTTCGCAA,-0.218
8,AGCGATAG,0.209
9,AAACCCAA,-0.0527
10,GAAGGCCC,-0.29
11,ATGGCCGC,-0.345
12,TCCGCGGA,0.0925
13,AAATTGAT,0.00287
14,GCTGTGCC,-0.0618
15,AGTGTGGA,0.0119
16,CTCCAGCC,-0.158
17,CGTAACGA,-0.141
18,CCCCCTAC,0.0383
19,TCTTCAAA,-0.243
